{"source": "PubChem BioAssay AID485360", "about": "(National Center for Advancing Translational Sciences (NCATS), 2010)", "note": "Among all 230,000 compounds or so, about 1,500 (0.65%) were called active. The inconclusive results got no clear call from the source; some entries with a clear call stand among them for comparison. Calls follow the shape of the dose curve; as a rule, active = well fitted inhibition curve with a large enough effect; inconclusive = small, poorly fitted or top-dose-only effect; inactive = no such curve, though single readings can be large or run the other way. Where the call is inconclusive, the potency comes from a doubtful curve fit. % is scaled to controls: 0 for no effect and ±100 for the full control effect; potency is read from the fitted curve at half-maximal effect; tags tell the direction and shape of the fitted curve."}
{"biological_target": "Lethal(3)malignant brain tumor-like protein 1 (Homo sapiens) (UniProt Q9Y468)", "sequence (Q9Y468 whole entry, looked up)": "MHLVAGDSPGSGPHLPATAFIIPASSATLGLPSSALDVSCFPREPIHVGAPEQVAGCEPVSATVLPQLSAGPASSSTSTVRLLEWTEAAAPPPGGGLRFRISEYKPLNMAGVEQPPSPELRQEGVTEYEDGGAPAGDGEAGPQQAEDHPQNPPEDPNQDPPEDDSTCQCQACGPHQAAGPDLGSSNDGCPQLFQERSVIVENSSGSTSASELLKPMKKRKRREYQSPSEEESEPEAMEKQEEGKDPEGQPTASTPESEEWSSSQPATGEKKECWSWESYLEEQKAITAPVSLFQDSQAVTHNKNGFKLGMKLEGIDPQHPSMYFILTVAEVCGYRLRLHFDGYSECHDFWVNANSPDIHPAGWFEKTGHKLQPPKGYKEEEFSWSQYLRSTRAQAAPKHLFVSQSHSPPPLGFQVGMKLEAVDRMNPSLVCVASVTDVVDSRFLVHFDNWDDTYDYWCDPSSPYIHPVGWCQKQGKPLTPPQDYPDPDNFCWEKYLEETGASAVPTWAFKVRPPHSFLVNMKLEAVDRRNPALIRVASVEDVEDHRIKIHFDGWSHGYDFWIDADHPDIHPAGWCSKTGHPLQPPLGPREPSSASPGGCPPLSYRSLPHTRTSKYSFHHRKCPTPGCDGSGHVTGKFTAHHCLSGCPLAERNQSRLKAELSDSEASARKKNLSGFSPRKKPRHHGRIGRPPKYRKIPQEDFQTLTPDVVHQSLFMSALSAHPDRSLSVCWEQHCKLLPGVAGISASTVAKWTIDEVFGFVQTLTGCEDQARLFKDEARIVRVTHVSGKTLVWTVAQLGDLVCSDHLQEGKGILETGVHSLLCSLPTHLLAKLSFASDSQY", "assay": "qHTS Assay for the Inhibitors of L3MBTL1; also: nearly all actives have a fitted effect of over 60% in size", "settings": "AlphaScreen L3MBTL1–H3K9me1 peptide binding; activity, negative = inhibition: at 57.1 µM (top of the series)", "how_it_was_run": "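Read-out is AlphaScreen signal from streptavidin donor and nickel chelate acceptor beads (10 ug/mL final each) bridging L3MBTL1 (50 nM) and biotinylated K9-monomethylated H3(1-15) peptide (75 nM), after 30 min compound exposure at room temperature.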"}
{"smiles": "O=C(NCCCn1ccnc1)C(=O)NCC1OCCCN1S(=O)(=O)c1ccc(F)cc1", "note": "(stereo not drawn)", "Potency": "inconclusive: 11.2 µM [inhibitor, partial curve, poor fit]"}
{"smiles": "COC(=O)c1ccc(NC(=O)CSc2nncc3ccc(OC)c(OC)c23)cc1", "Potency": "inconclusive: 3.98 µM [inhibitor, single point]"}
{"smiles": "CC1(C)CC(N2CCCC2)=CC(=[N+]2CCCCC2)C1", "activity, negative = inhibition": "inactive: -6.97%"}
{"smiles": "COCCn1c(SCC(=O)NC(=O)NC2CCCCC2)nc2ccccc2c1=O", "Potency": "inconclusive: 1.41 µM [inhibitor, single point]"}
{"smiles": "Cc1cc(CNC(=O)c2cccc3c2C(=O)c2ccc(-c4ccc(F)cc4OCc4ccccc4)cc2S3(=O)=O)c(C(F)(F)F)o1", "Potency": "inconclusive: 39.8 µM [inhibitor, single point]"}
{"smiles": "COc1ccccc1C(=O)Nc1ncc2c(n1)CC(c1ccco1)CC2=O", "note": "(stereo not drawn)", "Potency": "inconclusive: 31.6 µM [inhibitor, single point]"}
{"smiles": "CCCNC(=O)c1nnsc1Sc1ccc(Cl)cc1", "Potency": "inconclusive: 8.91 µM [inhibitor, single point]"}
{"smiles": "Cc1cccc(NC(=O)CNC(=O)c2cc(C3CC3)nn2-c2ccccc2)c1C", "activity, negative = inhibition": "inactive: -18.1%"}
{"smiles": "COc1ccccc1C(CNC(=O)C1COc2ccccc2O1)N1CCCC1", "note": "(stereo not drawn)", "Potency": "inconclusive: 0.794 µM [inhibitor, single point]"}
{"smiles": "O=C(Nc1nnc(SCc2ccc(F)cc2)s1)c1ccc2ncsc2c1", "Potency": "inconclusive: 22.4 µM [inhibitor, single point]"}
{"smiles": "O=C(c1cccn2c(=O)c3cc(Cl)ccc3nc12)N1CCN(Cc2ccc3c(c2)OCO3)CC1", "Potency": "inconclusive: 6.31 µM [inhibitor, single point]"}
{"smiles": "O=C(CCCN1C(=O)/C(=C/c2ccccc2)SC1=S)Nc1cccc(O)c1", "Potency": "inconclusive: 10 µM [inhibitor, partial curve]"}
{"smiles": "Cc1cc(C)c(NC(=O)Nc2ccccc2)c(C)n1", "activity, negative = inhibition": "inactive: -0.801%"}
{"smiles": "O=[N+]([O-])c1ccc(S(=O)(=O)N2CCSC2c2ccco2)cc1", "note": "(stereo not drawn)", "Potency": "inconclusive: 17.8 µM [inhibitor, single point]"}
{"smiles": "CSCCC(NC(=O)c1ccccc1)C(=O)NC1CCCC1", "note": "(stereo not drawn)", "Potency": "inconclusive: 1.58 µM [inhibitor, single point]"}
{"smiles": "Cc1ccc(CSc2ccc(-c3ccc4c(c3)OCO4)nn2)cc1", "activity, negative = inhibition": "inactive: -9.94%"}
{"smiles": "O=C(O)CN1C(=O)/C(=C\\c2cn(CC(=O)N3CCOCC3)c3ccccc23)SC1=S", "Potency": "inconclusive: 39.8 µM [inhibitor, single point]"}
{"smiles": "CCOc1ccc(C2=NNC(c3cccs3)=Nc3ccc(OC)cc32)cc1", "Potency": "inconclusive: 14.1 µM [inhibitor, partial curve]"}
